Read-outs that look alike come from different tables or passages of the source.

This assay has as its system CD169+ lymph node macrophages.

Regarding carrageenan, the “depletion of CD169+ lymph node macrophages” value (carrageenan 2 mg every other day from day -5, or dextran sulfate 1 mg single dose day -5, footpad (FIG. 9)) is “local depletion”.
Take dextran sulfate: the “depletion of CD169+ lymph node macrophages” value (mouse, in vivo) is “local depletion”.

The values are drawn from patent publication US10188733B2 (priority 2010, dated 2019).
